Results taken from the supplement of paper PMC11383711.
The list shows a part of the results. Binding of human antibodies (heavy:light variable regions, tested as scFv in one mRNA-display pool) to influenza hemagglutinin, with or without the stem antibody CR9114 bound first. Score = (mean enrichment − median) / interquartile range of that screen; higher = more enriched, 0 = typical non-binder. Active = above the paper's cut-off per screen: stems 28; unblocked H1 Solomon Islands 5, H1 Michigan 3, H3 5, H5 19, H7 2.85, both B 5; blocked 9, 7, H5 10, H7 10, B Phuket 10, B Lee 11.5. Scores are scaled within each screen and are no affinities; replicates correlate at about 0.6 to 0.9, and antibodies rare in the pool are noisier.

B1: K77-2A10 (protein)
chain 1: EVQLVESGGGLVQPGGSLRLSCEASGFIFSTYSMNWVRQAPGKGLEWVSYISDSSRTIYYADSVKGRFTISRDNTKNSLFLQMNNLRAEDTALYYCARDPDTPFIRAFDSWGQGTLVTVSS
chain 2: DIQLTQSPSFLSASVGDRVTITCRASQDISSYVAWYQQKPGKAPKLLIYATSTLQSGVPSRFSGGGSGTEFTLTIRGLQPEDFATYYCQQLNIYPPVTFGQGTKLEIK
B2: C2-3-F04 (protein)
chain 1: VQLVESGGGVVQPGRSLRLSCAASGFSFRDFSMHWVRQAPGMGLEWVTLISYDGTNTFYADSVKGRFTISRDNSKNTLFLQLNSLRTEDTAVYYCARDYRHGLIDFWGQGTLVTVSS
chain 2: DVVMTQSPLSLPVPLGQPASISCRSSDSLVSVDGNTYLNWFQQRPGQSPRRLIYQVSNRDSGVPERFSGSGSDTDFTLKISRVEAEDVGVYYCMQGTYWPPITFGQGTRLEIK
B3: C6-C01 (protein)
chain 1: VQLVESGGGVVQPGKSLRLSCTASGFTFSSYAMHWVRQAPGKGLEWVAVVAYDGSNRYYVDSVKGRFTISRDNSKNTLYLQMNNIRPEDTAVYYCARVASMILVDIKYYFDYWGQGTLVTVSS
chain 2: EIVMTQSPATLSVSPGERATLSCRASQSVRSNLAWYQQKPGQAPRLLIYGASTRATGIPARFSGSGSGTEFTLTISSLQSDDFAVYHCQQYNEWPRTFGQGTKVEIK
B4: W85-1C11 (protein)
chain 1: EVQLVESGGGLVQPGGSLRLSCAASGFILSPYWMHWVRQAPGKGLVWVSRINSDGSNRNYADSVKGRFTISRDNAKNTLYLQMNSLRVEDTAVYYCARQGYYYDSSGYQDWFDPWGQGTLVTVSS
chain 2: SYELTQPPSVSVSPGQTARITCSGDALPKKYAYWYQQKSGQAPVLVIYEDTKRPSGIPQRFSGSSSGTMATLTISGAQVEDEADYYCYSTDSSGNHRVFVGGT
B5: C1-2E01 (protein)
chain 1: VQLVESGGGGVRPGRSLRLSCAASGFNFEHYGMIWVRQVPGKGLEWVSAITWNGGDTYYVDSVRGRFTISRDNAKRSLFLQMNSLRVEDTAFYYCAREMRDPYDAFDLWGQGTMVTVSS
chain 2: DIQMTQSPSSLSASVGDRVTITCRASHNIGSYLNWYQQKPGKAPQLLIYASSILQTGVPSRFSGSGSGTDYTLTISGLQRDDFATYFCQQSSTNPKTFGQGTRLEIK
B6: 042-10-2D01 (protein)
chain 1: QVQLQESGPRVVKPSETLSLTCSVSGESISSFYWSWIRQPAGKGLEWIGRIDSSGSTNYNPSLKSRVSMSLDTSKKQVSLKLTSVTAADTAVYYCVRDWWEVQYGNAFDMWGQGTMVTVSS
chain 2: DIQMTQSPSSLSASVGDRVILTCRASQSIGTYLNWYQQKPGKAPKFLIYVASNLQSGVPSRFSGSGSGTDFTLTISSLQPEDFATYFCQQSHSIPWTFGQGTKVEIK

Target: Influenza A H1N1 A/Michigan/45/2015 hemagglutinin ectodomain
Test: mRNA display binding score; higher = more enriched on the antigen
Settings: antigen blocked with: 2 µM CR9114 IgG
Method: (§1)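 A pool of natively paired antibodies, displayed as scFv on mRNA, was selected once on antigen-coated beads and sequenced before and after; two replicates.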

Binder | mRNA display binding score
B1 | inactive: -0.0198
B2 | inactive: 0.447
B3 | inactive: 0.339
B4 | inactive: -0.526
B5 | inactive: -0.096
B6 | active: 54.9

Same assay, conditions: antigen blocked with: nothing

Binder | mRNA display binding score
B1 | inactive: 0.151
B2 | inactive: -0.0019
B3 | inactive: 1.43
B4 | inactive: -0.513
B5 | inactive: 0.147
B6 | inactive: 2.13

Target: Influenza A H1N1 A/Solomon Islands/3/2006 hemagglutinin ectodomain
Test: as above
Settings: antigen blocked with: 2 µM CR9114 IgG
Method: as §1

Binder | mRNA display binding score
B1 | inactive: 0.0913
B2 | inactive: 0.0792
B3 | inactive: 0.123
B4 | inactive: -0.368
B5 | inactive: 0.296
B6 | inactive: 2.13

Same assay, conditions: antigen blocked with: nothing

Binder | mRNA display binding score
B1 | inactive: 0.164
B2 | inactive: -0.183
B3 | inactive: 0.408
B4 | inactive: -0.32
B5 | inactive: -0.368
B6 | inactive: 0.537

Target: Influenza A H3N2 A/Singapore/INFIMH-16-0019/2016 hemagglutinin ectodomain
Test: as above
Settings: antigen blocked with: nothing
Method: as §1

Binder | mRNA display binding score
B1 | inactive: 0.39
B2 | inactive: 1.27
B3 | inactive: -0.227
B4 | inactive: -0.481
B5 | inactive: -0.16
B6 | inactive: 0.335

Target: Influenza A H5N1 A/Qinghai/1A/2005 hemagglutinin ectodomain
Test: as above
Settings: antigen blocked with: 2 µM CR9114 IgG
Method: as §1

Binder | mRNA display binding score
B1 | inactive: 4.57
B2 | inactive: -0.389
B3 | inactive: 0.415
B4 | inactive: -0.915
B5 | inactive: 0.067
B6 | inactive: 0.407

Same assay, conditions: antigen blocked with: nothing

Binder | mRNA display binding score
B1 | inactive: 6.69
B2 | inactive: 0.272
B3 | inactive: 0.441
B4 | inactive: -0.567
B5 | inactive: 0.762
B6 | inactive: 0.033

Target: Influenza A H7N9 A/Shanghai/2/2013 hemagglutinin ectodomain
Test: as above
Settings: antigen blocked with: 2 µM CR9114 IgG
Method: as §1

Binder | mRNA display binding score
B1 | inactive: -0.42
B2 | inactive: -0.0629
B3 | inactive: -0.0578
B4 | inactive: 0.279
B5 | inactive: 0.347
B6 | active: 36.7

Same assay, conditions: antigen blocked with: nothing

Binder | mRNA display binding score
B1 | inactive: 0.23
B2 | inactive: -0.036
B3 | inactive: 1.82
B4 | inactive: -0.418
B5 | inactive: 0.0188
B6 | inactive: 0.159

Target: Influenza B/Lee/1940 hemagglutinin ectodomain
Test: as above
Settings: antigen blocked with: 2 µM CR9114 IgG
Method: as §1

Binder | mRNA display binding score
B1 | inactive: -0.385
B2 | inactive: -0.522
B3 | inactive: -1.39
B4 | inactive: 0.344
B5 | inactive: 0.0371
B6 | inactive: 0.621

Same assay, conditions: antigen blocked with: nothing

Binder | mRNA display binding score
B1 | inactive: 0.128
B2 | inactive: -0.0816
B3 | inactive: 0.316
B4 | inactive: -0.107
B5 | inactive: -0.105
B6 | inactive: 0.0173

Target: Influenza B/Phuket/3073/2013 hemagglutinin ectodomain
Test: as above
Settings: antigen blocked with: 2 µM CR9114 IgG
Method: as §1

Binder | mRNA display binding score
B1 | active: 29
B2 | inactive: -0.519
B3 | inactive: 0.0282
B4 | inactive: -0.605
B5 | inactive: 8.08
B6 | inactive: 0.694

Same assay, conditions: antigen blocked with: nothing

Binder | mRNA display binding score
B1 | active: 38.7
B2 | inactive: -0.269
B3 | inactive: 0.218
B4 | inactive: -0.123
B5 | active: 7.18
B6 | inactive: -0.109
